Data: the RNAGym collection of RNA variant scans (doi:10.7554/elife.90254)
Read counts are not given, so values of variants with three or more changes are uncertain.

B1: LINE1-mini (parent)
chain: GGCAGAGCUCAACACAGCGUGGCAAAGUGGCUGUGGCUAGACUGCC

Variants of: B1
Assay: self-cleavage, relative activity (ratio to wild type); higher = more cleavage; in vitro, sequencing; the parent is a self-cleaving ribozyme

| Variant | self-cleavage |
| --- | --- |
| A14C G21C U28A | 0.05 |
| C13U U20C G35U A39C | 2.9 |
| A14C C15A G17A | 0.04 |
| A14G G19C A26G | 0.09 |
| C15A A24U G30U G36C | 0.16 |
| A14G C23A U32A | 0.04 |
| C13U C23G G29C C45U | 0.08 |
| A14U U32A A41U | 0.02 |
| A14U A16U C31A G40A C45U | 0.03 |
| A14U G35U C45G | 0.02 |
| A14G U34A G40C | 0.01 |
| A14U A24G A25U G36A G44A | 0.05 |
| C13U G19A G44C | 0.01 |
| A14U A16C C31U U32C | 0.1 |
| C13U G19C C23G G40A | 0.03 |
| A14G U28C G44A | 0.04 |
| A14U A24G G35C C46U | 0.05 |
| A14U G19A G22U G29C | 0.27 |
| C15A A16G U38A A41G C42U | 0.01 |
| A14G U20A G27A C45A C46G | 0.08 |
| C13U G29U C45A | 0.15 |
| C13U C23U A24G A26U | 0.09 |
| A14C G19A G30A | 0.03 |
| A14U A25U C46A | 0.11 |

| Variant | self-cleavage |
| --- | --- |
| A14G G17C G40A | 0.02 |
| C13U U32C G36C | 0.09 |
| A14U C31U A41G | 0.01 |
| C13U U34G G36U | 0.09 |
| A14G U32A A41C C45G | 0 |
| A14G C42A C46G | 0.02 |
| A14G U32A G36A U43C | 0.01 |
| A14U G22C G27U U34C G44A | 0.02 |
| C13U G17U G19C G29A U34A G44A | 0.03 |
| A14U U43C G44U | 0 |
| A14C A25U U32G | 0.07 |
| C13U G21A G35U | 0.1 |
| A14U G21A G40U | 0.21 |
| A14U C23U G29C C31G G36U G40A | 0.08 |
| C15A A24G G30U U38G | 0.02 |
| A14C C15U U38A U43A | 0.03 |
| A14C A26C A39U C45U | 0 |
| A14C G17C G22U A41U | 0.08 |
| A14G G17U C23A U32G G35U | 0.03 |
| C13U U38G G40U | 0.04 |
| A14U U20G C45A | 0.02 |
| A14C G19A U34G | 0.08 |
| C13U G21A G22A G30C G33C | 0.02 |
| A14C G36U C45G | 0.03 |

| Variant | self-cleavage |
| --- | --- |
| C13U G29U C37A | 0.06 |
| A14U A16G U20G G33A | 0 |
| C15A A16C G35C | 0.01 |
| C15A A26U U38A | 0.07 |
| C13U G27U G36U | 0.01 |
| A14U C31G G33U | 0.07 |
| A14C C31A G40A | 0.02 |
| C13U G17A G30A C46A | 0.06 |
| C13U G22A A25C C31A G35C C46U | 0.07 |
| A14U A24C G36U | 0.25 |
| A14G G30U G40A | 0.15 |
| C15A A25U G29U | 0.11 |
| C13U U38G C46G | 0.01 |
| C15A A25U U28C | 0.04 |
| A14U C18A G19U U38G C45U | 0.03 |
| C13U C18A C23G A24U | 0 |
| A14C G17U G19A G22U G27U | 0.09 |
| C13U G22C G29U | 0 |
| C13U G30U C45G | 0.17 |
| A14C A16C A24U U43G | 0.26 |
| A14G A26U U28A G33C G40A | 0.01 |
| A14U A41U C46U | 0.03 |
| C13U G36U G40C | 0.02 |
| A14U U20A A39G | 0.02 |

| Variant | self-cleavage |
| --- | --- |
| A14C C23U C45U | 0.08 |
| A14G C15U G22U G27U A41G | 0.02 |
| A14G C37U A39G | 0 |
| A14U A24G C46A | 0.06 |
| A14U U20C C31A G33U A41G C45U | 0.03 |
| A14U G17C A24U C37G C45U | 0.12 |
| A14C G19A A25C | 0.02 |
| C13U U32C G44U | 0.14 |
| A14U A16C G17A G40C U43C | 0.03 |
| A14C A16U G29C G36U G40U C45U | 0.03 |
| C13U G17A G27C C31G C45A | 0.08 |
| A14C G27U G30A U34C G36A | 0.01 |
| A14G C15A U20C G40U | 0 |
| A14U C18G G27U | 0.05 |
| A14C G21U G30U G36U | 0.05 |
| A14G C15U C45A | 0.05 |
| A14U A16C C23G A26C | 0.03 |
| A14C C18G G30A | 0.14 |
| A14C G22C G35A C42A | 0.02 |
| C15A A24G G29U U34G | 0.02 |
| A14C A16G G30U U34A C42A | 0.08 |
| A14C A26U C46A | 0.04 |
| A14G A16C G29U G33U G36A | 0.04 |
| A14C A16U G17U U38G A39U G44A | 0.03 |

| Variant | self-cleavage |
| --- | --- |
| C13U G35U C37U | 0.02 |
| A14U U20A G44U | 0.02 |
| A14G A39U C46A | 0.42 |
| A14G U34A U43C | 0.02 |
| A14G C23G U43C | 0.1 |
| A14G G21C A25U C42A | 0.02 |
| A14U G22A G36A G44U | 0.21 |
| A14U A24G G40C | 0.1 |
| C13U G17U U20C U32C | 0.02 |
| C15A A16U U20G G36C C46U | 0.02 |
| C13U U34C C45G | 0.02 |
| C13U C37G G40U | 0.05 |
| A14G C23U A25U G27U G35C G44A | 0.01 |
| C15A A16G C18A | 0.05 |
| A14U U28A U34G G36A | 0.21 |
| A14C G19C U20C C23A | 0.03 |
| C15A A25C G40A | 0.03 |
| A14G U28G U34A | 0.12 |
| C13U G21U C42G C45G | 0.02 |
| C13U G27U C42A | 0.07 |
| C13U G17C G19U G22U G35C | 0.04 |
| C15A A25U G27A A39G | 0.03 |
| C13U G33U G36U | 0.02 |
| C13U G27U U38A C45U | 0.03 |

| Variant | self-cleavage |
| --- | --- |
| A14G C23U G27C | 0.11 |
| C13U U20G C42A | 0.02 |
| A14G A26U C31G U34G | 0.01 |
| A14G G19A U32C G33U G36U G44C | 0.02 |
| A14C G22C C23U A25U | 0.08 |
| A14U C31A U32A A39C C45A | 0 |
| A14C A25U C31U | 0.01 |
| A14U G36A C45U | 0.08 |
| A14G C15A G17U G21U | 0.08 |
| A14C C23U A41G U43A | 0.03 |
| C13U G17U C42G | 0.09 |
| C13U C23U G35U | 0.08 |
| C13U G21U U28C C31U G35C C46G | 0.01 |
| C13U C18U G30C G44C | 0.05 |
| A14U G22U C45U | 0.05 |
| C15A A16U U28A U43C G44A | 0.01 |
| A14C C18U G19U | 0.05 |
| A14C G17A C31A G44A C46G | 0.01 |
| C13U U32C G40C | 0.04 |
| A14G A16C U28C | 0.04 |
| A14G C18G G40A C45U | 0 |
| A14G C18U G19U G35A G36U G40U | 0.01 |
| C13U G22C A24G A25G G30U | 0.03 |
| C13U G35C G44U C45A | 0.08 |

| Variant | self-cleavage |
| --- | --- |
| A14C U20C A24U G29U G35U C46G | 0.02 |
| A14C U34C C46A | 0.32 |
| A14C G30C G40U | 0.06 |
| A14U G17U G33A | 0.07 |
| A14G G21C G30A U34A | 0.12 |
| A14G A39C G40U A41C | 0.02 |
| A14G C18A C31U | 0.01 |
| C13U U20A G35U | 0.03 |
| A14U C15G U20A | 0.04 |
| A14G G17C U20G U28C A39G | 0.02 |
| C15A A25U C42A | 0.05 |
| C13U G19C C31U A39U | 0.03 |
| C13U G19U C23A G36U C37U C45U | 0.03 |
| A14C C31U A41G | 0 |
| C13U G17U U34A A39C | 0.05 |
| A14G C37U U43A | 0.18 |
| A14C U28G U34G | 0.06 |
| A14G G40U C46U | 0.4 |
| A14C G27C G30A C45U | 0.07 |
| A14U C31A G33C | 0.07 |
| A14U G17A G19A A41U | 0.01 |
| A14C G17U C18G G27U A41C | 0.06 |
| A14U G22A A39U | 0.04 |
